From US11925679B2, “H3.3 CTL peptides and uses thereof” (The Regents of the University of California, priority 2015, dated 2024)

Experiments:
[1] = tested on: purified HLA-A2 class I molecules; assay: Competitive binding inhibition assay with purified HLA-A2 and radiolabeled probe peptide
Method: We next directly evaluated relative binding affinity of these peptides using the transporter associated with antigen processing (TAP)-deficient HLA-A* ? + T2 cell line. Since stable binding of HLA-A ? with peptide epitopes further stabilizes the surface expression of HLA-A ? , quantitative expression levels of HLA-A ? correlate with the binding affinity of the peptide-epitopes that are co-incubated with the T2 cells (FIG. 1). The MFI values for T2 cells with no peptide indicate the baseline HLA-A2 expression level. Cap6D is a well-documented HLA-A ? -binding epitope and used as a positive control for the assay. […]
HLA-peptide binding assays. Quantitative assays to measure the binding of peptides to purified HLA ? class I molecules are based on the inhibition of binding of a radiolabeled standard peptide (HBV core 18-27 analog, […] (SEQ ID NO:20)), and were performed as detailed elsewhere (J. Sidney, S. Southwood, C. Moore, C. Oseroff, C. Pinilla, H. M. Grey, A. Sette, Curr Protoc Immunol Chapter 18, Unit 18 13 (2013)). […] Under the conditions used, where [radiolabeled probe]<[MHC] and IC50≥[MHC], the measured IC50 values are reasonable approximations of the true Kd values (K. Gulukota, J. Sidney, A. Sette, C. DeLisi, J Mol Biol 267, 1258-1267 (1997); Y. Cheng, W. H. Prusoff, Biochemical Pharmacology 22, 3099-3108 (1973)).

H3.3.K27M-specific TCR = conditions: peptide loaded on T2 cells, FIG. 8B
HLA-A2 on T2 cells = assay: T2 cell A2-binding assay (surface HLA-A2 stabilisation, MFI); conditions: peptide co-incubated with T2 cells
Method: FIG. 1. Identification of a HLA-A ? -restricted epitope in H3.3 with the K27M mutation. A. HLA-A201 binding ability of H3.3-derived peptides was analyzed by T2 cell A2-binding assay. Cap1-6D is an altered peptide ligand, which has been derived from an epitope in human carcinoembryonic Ag, CEA605-613 and was used as positive control.
We next directly evaluated relative binding affinity of these peptides using the transporter associated with antigen processing (TAP)-deficient HLA-A* ? + T2 cell line. Since stable binding of HLA-A ? with peptide epitopes further stabilizes the surface expression of HLA-A ? , quantitative expression levels of HLA-A ? correlate with the binding affinity of the peptide-epitopes that are co-incubated with the T2 cells (FIG. 1). The MFI values for T2 cells with no peptide indicate the baseline HLA-A2 expression level. Cap6D is a well-documented HLA-A ? -binding epitope and used as a positive control for the assay. […] To precisely measure the binding of peptides to HLA-A ? class I molecules, we performed a competitive binding inhibition assay, and evaluated the concentration of peptide yielding 50% inhibition of the binding of the radiolabeled probe peptide (IC50).

| Sequence | IL-2 production by TCR-transduced J.RT3-T3.5 cells (recognition by the TCR) (H3.3.K27M-specific TCR) | further results |
| --- | --- | --- |
| RKSAPSTGGV [H3.3.Non-M (26-35), non-mutant counterpart of H3.3 positions 26-35, reference compound] |  | binding capability relative to the mutant H3.3.K27M peptide (fold lower) [1]: > 30 fold |
| RMSAPATGGV [Mut H3.1] | failed to recognize |  |
| RMSAPSTGGV [H3.3.K27M (26-35)] |  | mean fluorescence intensity (MFI) of HLA-A2 on T2 cells (HLA-A2 on T2 cells): peptide-dose-dependent increase of mean fluorescence intensity |
| XMSAPSTGGV [Cit H3.3] | completely abrogates IL-2 production |  |
